Experimental data from article PMC6650080, “A novel Ca2+-binding protein that can rapidly transduce auxin responses during root growth” (PLoS Biology, 2019).
Results are given in words; binding and its absence hold for the method and conditions named. Some results given as binding are weak or reduced against the parent protein; the word gives no strength. Tags and fused reporters may be left off the sequences shown.

Experiments:
[1] = target: T1, icr1W266Q, two-hybrid fusion (Arabidopsis) (UniProt Q8LE98); assay: two-hybrid; Gal4 Gateway vectors pDEST22 (prey) and pDEST32 (bait), PJ69-4a; decimal dilutions spotted on -LT and -LTH with 1 mM 3-AT, 21°C
T1 sequence: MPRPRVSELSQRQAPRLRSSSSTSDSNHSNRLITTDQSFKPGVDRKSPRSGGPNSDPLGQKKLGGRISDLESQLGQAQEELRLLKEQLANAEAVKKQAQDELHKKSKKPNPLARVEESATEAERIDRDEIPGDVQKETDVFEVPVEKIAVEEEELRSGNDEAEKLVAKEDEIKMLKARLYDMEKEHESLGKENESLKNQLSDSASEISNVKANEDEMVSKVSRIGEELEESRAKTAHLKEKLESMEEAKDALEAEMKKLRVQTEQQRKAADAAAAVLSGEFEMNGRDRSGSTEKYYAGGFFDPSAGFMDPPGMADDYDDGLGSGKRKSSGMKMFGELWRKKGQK

[2] = target: T2, ICR1W266A, two-hybrid fusion (Arabidopsis) (UniProt Q8LE98); assay: as above
T2 sequence: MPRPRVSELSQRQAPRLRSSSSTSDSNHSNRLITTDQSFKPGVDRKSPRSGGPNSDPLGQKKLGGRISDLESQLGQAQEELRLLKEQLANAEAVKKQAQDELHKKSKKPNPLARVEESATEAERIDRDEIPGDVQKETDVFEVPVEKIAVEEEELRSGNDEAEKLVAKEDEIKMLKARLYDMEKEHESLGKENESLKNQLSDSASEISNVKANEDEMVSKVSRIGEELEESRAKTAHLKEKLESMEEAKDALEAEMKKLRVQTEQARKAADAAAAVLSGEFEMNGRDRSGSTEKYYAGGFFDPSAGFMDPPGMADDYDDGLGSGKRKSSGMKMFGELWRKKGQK

[3] = target: T3, icr1-151-344, C-terminal fragment of ICR1, two-hybrid fusion (Arabidopsis) (UniProt Q8LE98); assay: as above
T3 sequence: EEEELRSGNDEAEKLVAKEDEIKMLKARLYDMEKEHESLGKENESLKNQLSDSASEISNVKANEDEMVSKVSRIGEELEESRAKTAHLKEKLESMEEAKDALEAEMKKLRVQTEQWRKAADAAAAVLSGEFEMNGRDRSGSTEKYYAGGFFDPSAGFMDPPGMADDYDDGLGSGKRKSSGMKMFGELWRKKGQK

[4] = target: T4, ICR1 W338Q, two-hybrid fusion (Arabidopsis) (UniProt Q8LE98); assay: as above
T4 sequence: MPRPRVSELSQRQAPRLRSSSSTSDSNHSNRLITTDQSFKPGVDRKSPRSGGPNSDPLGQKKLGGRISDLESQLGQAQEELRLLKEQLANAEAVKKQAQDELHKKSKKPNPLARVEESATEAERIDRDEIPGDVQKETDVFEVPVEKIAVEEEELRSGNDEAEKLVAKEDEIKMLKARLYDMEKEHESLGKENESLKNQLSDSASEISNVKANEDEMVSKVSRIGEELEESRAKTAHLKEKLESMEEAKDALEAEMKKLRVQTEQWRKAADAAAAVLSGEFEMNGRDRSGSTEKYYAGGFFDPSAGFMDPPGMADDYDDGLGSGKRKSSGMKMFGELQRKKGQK

[5] = target: T5, full-length ICR1, Gateway (pDEST22/pDEST32) two-hybrid fusion (Arabidopsis) (UniProt Q8LE98); assay: as above
T5 sequence: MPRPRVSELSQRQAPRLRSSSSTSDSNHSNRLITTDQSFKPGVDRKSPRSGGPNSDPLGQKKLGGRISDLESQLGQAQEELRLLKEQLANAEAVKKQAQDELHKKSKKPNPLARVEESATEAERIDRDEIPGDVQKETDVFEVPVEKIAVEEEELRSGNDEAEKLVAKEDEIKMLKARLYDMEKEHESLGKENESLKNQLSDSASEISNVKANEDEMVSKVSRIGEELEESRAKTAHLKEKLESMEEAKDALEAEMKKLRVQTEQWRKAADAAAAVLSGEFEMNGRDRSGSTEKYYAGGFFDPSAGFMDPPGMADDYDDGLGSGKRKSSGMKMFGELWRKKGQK

[6] = target: T6, ICR1W338A, two-hybrid fusion (Arabidopsis) (UniProt Q8LE98); assay: as above
T6 sequence: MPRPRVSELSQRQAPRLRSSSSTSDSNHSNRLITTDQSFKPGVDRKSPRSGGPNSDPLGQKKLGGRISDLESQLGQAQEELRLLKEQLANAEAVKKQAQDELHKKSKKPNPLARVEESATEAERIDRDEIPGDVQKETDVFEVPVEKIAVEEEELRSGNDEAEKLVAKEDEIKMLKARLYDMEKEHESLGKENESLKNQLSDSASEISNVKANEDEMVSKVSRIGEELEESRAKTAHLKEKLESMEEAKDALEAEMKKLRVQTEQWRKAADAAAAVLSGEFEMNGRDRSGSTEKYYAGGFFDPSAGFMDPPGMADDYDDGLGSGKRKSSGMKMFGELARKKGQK

[7] = target: T7, icr1-301-344, the 44 C-terminal residues of ICR1, two-hybrid fusion (Arabidopsis) (UniProt Q8LE98); assay: as above
T7 sequence: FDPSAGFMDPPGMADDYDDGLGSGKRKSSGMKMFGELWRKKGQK

[8] = target: T8, interactor of constitutively active ROP (ICR1), pGBT-ICR1 two-hybrid fusion (Arabidopsis) (UniProt Q8LE98); assay: two-hybrid; Gal4 system, pGAD-CMI1 or pGAD-cmi1D85N cotransformed with pGBT-ICR1/ICR2/ICR4; S. cerevisiae Y190 and PJ69-4a; growth without Leu, Trp, His with 50 mM 3-AT; beta-galactosidase assays
T8 sequence: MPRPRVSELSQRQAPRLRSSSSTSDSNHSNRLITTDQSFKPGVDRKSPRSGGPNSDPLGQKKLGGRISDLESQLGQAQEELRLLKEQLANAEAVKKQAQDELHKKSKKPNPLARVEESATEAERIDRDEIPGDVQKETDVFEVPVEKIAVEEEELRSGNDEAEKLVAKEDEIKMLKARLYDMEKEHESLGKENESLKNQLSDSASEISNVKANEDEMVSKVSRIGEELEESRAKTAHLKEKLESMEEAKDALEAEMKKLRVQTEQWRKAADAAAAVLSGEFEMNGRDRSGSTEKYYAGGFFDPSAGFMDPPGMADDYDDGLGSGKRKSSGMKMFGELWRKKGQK

[9] = target: T9, ICR4, pGBT-ICR4 two-hybrid fusion (Arabidopsis) (UniProt Q9M9F9); assay: as above
T9 sequence: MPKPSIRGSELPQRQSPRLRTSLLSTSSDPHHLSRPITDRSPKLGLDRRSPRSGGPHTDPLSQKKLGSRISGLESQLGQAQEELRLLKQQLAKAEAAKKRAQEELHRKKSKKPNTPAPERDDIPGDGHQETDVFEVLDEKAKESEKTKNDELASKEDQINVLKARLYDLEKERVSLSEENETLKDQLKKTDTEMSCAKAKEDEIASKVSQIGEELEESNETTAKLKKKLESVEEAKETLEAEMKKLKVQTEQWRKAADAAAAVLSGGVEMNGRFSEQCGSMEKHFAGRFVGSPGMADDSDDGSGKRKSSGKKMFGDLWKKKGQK

[10] = target: T10, ICR2, pGBT-ICR2 two-hybrid fusion (Arabidopsis) (UniProt Q9ZQC5); assay: as above
T10 sequence: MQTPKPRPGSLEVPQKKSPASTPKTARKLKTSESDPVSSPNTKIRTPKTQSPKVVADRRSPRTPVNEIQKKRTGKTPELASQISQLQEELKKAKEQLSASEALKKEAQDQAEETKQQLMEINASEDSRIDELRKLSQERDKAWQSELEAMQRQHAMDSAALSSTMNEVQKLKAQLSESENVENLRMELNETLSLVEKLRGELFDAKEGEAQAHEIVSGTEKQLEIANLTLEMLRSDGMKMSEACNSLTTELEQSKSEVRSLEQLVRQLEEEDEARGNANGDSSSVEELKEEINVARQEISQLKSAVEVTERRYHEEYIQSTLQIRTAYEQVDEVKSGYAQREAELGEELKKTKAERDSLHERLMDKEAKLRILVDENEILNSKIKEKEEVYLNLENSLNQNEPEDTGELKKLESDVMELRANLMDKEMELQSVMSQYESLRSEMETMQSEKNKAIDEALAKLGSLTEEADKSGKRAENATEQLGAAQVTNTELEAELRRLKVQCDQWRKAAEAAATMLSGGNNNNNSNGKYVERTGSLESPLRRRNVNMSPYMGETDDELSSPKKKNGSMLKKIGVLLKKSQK

[11] = target: T11, ICR1, LexA two-hybrid fusion (Arabidopsis) (UniProt Q8LE98); assay: two-hybrid; Clontech LexA system, yeast strain EGY48, X-Gal assays read after 24 and 48 hours
T11 sequence: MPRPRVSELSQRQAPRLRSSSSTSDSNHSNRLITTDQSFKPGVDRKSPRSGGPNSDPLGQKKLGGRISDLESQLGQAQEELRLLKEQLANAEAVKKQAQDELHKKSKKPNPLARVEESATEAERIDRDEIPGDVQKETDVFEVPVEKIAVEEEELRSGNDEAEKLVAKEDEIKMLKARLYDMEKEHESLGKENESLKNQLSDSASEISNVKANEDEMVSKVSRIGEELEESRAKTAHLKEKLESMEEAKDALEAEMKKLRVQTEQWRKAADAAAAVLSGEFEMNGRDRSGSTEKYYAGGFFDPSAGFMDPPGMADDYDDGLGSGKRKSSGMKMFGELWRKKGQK

GST-ICR1 = target: T12, GST-ICR1 (Arabidopsis, UniProt Q8LE98 1-344); assay: pull-down; as a3 but with 10 mM EGTA in place of 5 mM CaCl2 in reaction and wash buffers; both purified
T12 construct: ICR1, Arabidopsis; also called glutathione S-transferase (GST)-ICR1; source: E. coli Rosetta (DE3), purified (Glutathione sepharose)
T12 sequence (looked up): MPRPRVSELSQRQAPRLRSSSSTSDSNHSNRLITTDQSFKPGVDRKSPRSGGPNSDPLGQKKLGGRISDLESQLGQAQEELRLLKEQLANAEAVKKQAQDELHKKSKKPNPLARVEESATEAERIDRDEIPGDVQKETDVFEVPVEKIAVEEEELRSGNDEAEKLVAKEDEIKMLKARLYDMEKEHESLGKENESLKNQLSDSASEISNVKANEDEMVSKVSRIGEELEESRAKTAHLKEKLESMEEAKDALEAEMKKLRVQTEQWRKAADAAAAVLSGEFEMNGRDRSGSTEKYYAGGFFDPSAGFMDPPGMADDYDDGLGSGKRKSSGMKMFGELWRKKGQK

B1: CMI1, Gateway (pDEST22/pDEST32) two-hybrid fusion (protein, UniProt O81831 1-130)
chain: MASPKSPTRPTQQNPQPNFHDFLPTMAGNLGGEGLIGELCNGFELLMDREKGVITFESLRRNAAAVLGLGDLTDEDVRCMIKEGDFDCDGALNQMEFCVLMFRLSPDLMEASRCLVTEVIEEEFGFTRRH
Question: With B1 as the binder, how does the binding [1] read?
Answer: binds

Question: What about the binding [2] of the same binder?
Answer: binds

Question: And the binding [3]?
Answer: binds

Question: And the binding [4]?
Answer: no binding

Question: What about the binding [5] of the same binder?
Answer: binds

Question: What about the binding [6] of the same binder?
Answer: no binding

Question: What about the binding [7] of the same binder?
Answer: binds

B2: Ca2+-dependent modulator of ICR1 (CMI1), pGAD-CMI1 two-hybrid fusion (protein, UniProt O81831 1-130)
chain: MASPKSPTRPTQQNPQPNFHDFLPTMAGNLGGEGLIGELCNGFELLMDREKGVITFESLRRNAAAVLGLGDLTDEDVRCMIKEGDFDCDGALNQMEFCVLMFRLSPDLMEASRCLVTEVIEEEFGFTRRH
Question: What does the source list for B2?
Answer: binding [8]: binds; binding [9]: no binding; binding [10]: no binding

B3: CMI1, LexA two-hybrid fusions (CMI1-LexA-BD and CMI1-Lex-AD) (protein, UniProt O81831 1-130)
chain: MASPKSPTRPTQQNPQPNFHDFLPTMAGNLGGEGLIGELCNGFELLMDREKGVITFESLRRNAAAVLGLGDLTDEDVRCMIKEGDFDCDGALNQMEFCVLMFRLSPDLMEASRCLVTEVIEEEFGFTRRH
Question: For B3, which binding [11] is on record?
Answer: binds

B4: cmi1D85N, pGAD-cmi1D85N two-hybrid fusion (protein, UniProt O81831 1-130)
chain: MASPKSPTRPTQQNPQPNFHDFLPTMAGNLGGEGLIGELCNGFELLMDREKGVITFESLRRNAAAVLGLGDLTDEDVRCMIKEGNFDCDGALNQMEFCVLMFRLSPDLMEASRCLVTEVIEEEFGFTRRH
Question: How did the binding [8] turn out when B4 was run?
Answer: no binding

B5: His6-CMI1 (natural protein, Arabidopsis, UniProt O81831 1-130, looked up)
chain: MASPKSPTRPTQQNPQPNFHDFLPTMAGNLGGEGLIGELCNGFELLMDREKGVITFESLRRNAAAVLGLGDLTDEDVRCMIKEGDFDCDGALNQMEFCVLMFRLSPDLMEASRCLVTEVIEEEFGFTRRH
notes: CMI1, Arabidopsis, At4g27280; also called His-CMI1; source: E. coli Rosetta (DE3), purified (Ni-NTA)
Question: Which binding (GST-ICR1) does the source give for B5 here?
Answer: no binding (condition: Ca2+ chelated with 10 mM EGTA)

B6: cmi1 L59A, Gateway two-hybrid fusion (protein, UniProt O81831 1-130)
chain: MASPKSPTRPTQQNPQPNFHDFLPTMAGNLGGEGLIGELCNGFELLMDREKGVITFESARRNAAAVLGLGDLTDEDVRCMIKEGDFDCDGALNQMEFCVLMFRLSPDLMEASRCLVTEVIEEEFGFTRRH
Question: For B6, which binding [5] is on record?
Answer: no binding

B7: cmi1 L92A, Gateway two-hybrid fusion (protein, UniProt O81831 1-130)
chain: MASPKSPTRPTQQNPQPNFHDFLPTMAGNLGGEGLIGELCNGFELLMDREKGVITFESLRRNAAAVLGLGDLTDEDVRCMIKEGDFDCDGAANQMEFCVLMFRLSPDLMEASRCLVTEVIEEEFGFTRRH
Question: With B7 as the binder, how does the binding [5] read?
Answer: no binding

B8: cmi1 L100A, Gateway two-hybrid fusion (protein, UniProt O81831 1-130)
chain: MASPKSPTRPTQQNPQPNFHDFLPTMAGNLGGEGLIGELCNGFELLMDREKGVITFESLRRNAAAVLGLGDLTDEDVRCMIKEGDFDCDGALNQMEFCVAMFRLSPDLMEASRCLVTEVIEEEFGFTRRH
Question: For B8, which binding [5] is on record?
Answer: no binding
